16 compounds from the supplement of paper PMC4604168 (melanoma cell lines) can be followed below.

The list shows a part of the results. Many values rest on one well or one pass, so single values are uncertain.
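Note: cell number obtained by counting DAPI-stained nuclei in high-throughput microscope images with image analysis software, screen run in 1,536-well plates.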

The first experiment relates to COLO792. In words: cell count relative to DMSO control; melanoma cells; higher = more viable cells. Particulars: library dose: low library concentration; 72 h.
In turn, `Cn1c(Nc2ccc(C(F)(F)F)cc2)nc2cc(Oc3ccnc(-c4ncc(C(F)(F)F)[nH]4)c3)ccc21` + COCC[n+]1c2c(n(Cc3cnccn3)c1C)C(=O)c1ccccc1C2=O [YM155] (first compound 0.08 µM, partner dose 0.0004 µM) gave a cell count of 46.7%.

With `Clc1ccc(Nc2nnc(Cc3ccncc3)c3ccccc23)cc1` [vatalanib] + C=CCn1c(=O)c2cnc(Nc3ccc(N4CCN(C)CC4)cc3)nc2n1-c1cccc(C(C)(C)O)n1 [MK1775] (first compound 2 µM, partner dose 0.02 µM), the cell count came out at 82%.

`Clc1ccc(Nc2nnc(Cc3ccncc3)c3ccccc23)cc1` [vatalanib] + Nc1cccc2c1CN(C1CCC(=O)NC1=O)C2=O [lenalidomide] (first compound 2 µM, partner dose 1 µM) had a cell count of 83%.

The test system of the next experiment is COLO800. The description is as above. Particulars: library dose: low library concentration; 72 h.
On to `OCc1c[nH]c2ccccc12` [Indole-3-carbinol] + COCC[n+]1c2c(n(Cc3cnccn3)c1C)C(=O)c1ccccc1C2=O [YM155] (first compound 0.8 µM, partner dose 0.0004 µM), for which the cell count was 117%.

Consider `OCc1c[nH]c2ccccc12` [Indole-3-carbinol] + C[C@]1(c2nc3c(C(N)=O)cccc3[nH]2)CCCN1 [Veliparib] (first compound 0.8 µM, partner dose 1.4 µM), for which the cell count was determined as 103%.

As to `OCc1c[nH]c2ccccc12` [Indole-3-carbinol] + C#Cc1cccc(Nc2ncnc3cc(OCCOC)c(OCCOC)cc23)c1 [erlotinib] (first compound 0.8 µM, partner dose 0.8 µM), the cell count was 102%.

Regarding `C#Cc1cccc(Nc2ncnc3cc(OCCOC)c(OCCOC)cc23)c1` [erlotinib] + Cn1nnc2c(C(N)=O)ncn2c1=O [temozolomide] (first compound 0.8 µM, partner dose 2 µM), the cell count was 80.7%.

Compound `C#Cc1cccc(Nc2ncnc3cc(OCCOC)c(OCCOC)cc23)c1` [erlotinib] + Cc1nc(Nc2ncc(C(=O)Nc3c(C)cccc3Cl)s2)cc(N2CCN(CCO)CC2)n1 [dasatanib] (first compound 0.8 µM, partner dose 0.004 µM) had a cell count of 96%.

The compound `Cn1c(Nc2ccc(C(F)(F)F)cc2)nc2cc(Oc3ccnc(-c4ncc(C(F)(F)F)[nH]4)c3)ccc21` + Cn1nnc2c(C(N)=O)ncn2c1=O [temozolomide] (first compound 0.08 µM, partner dose 2 µM) yielded a cell count of 88.8%.

`COCC[n+]1c2c(n(Cc3cnccn3)c1C)C(=O)c1ccccc1C2=O` + C[C@]1(c2nc3c(C(N)=O)cccc3[nH]2)CCCN1 [Veliparib] (first compound 0.0004 µM, partner dose 1.4 µM) returned a cell count of 56.4%.

`OCc1c[nH]c2ccccc12` [Indole-3-carbinol] + COc1cc(Nc2ncc(F)c(Nc3ccc4c(n3)NC(=O)C(C)(C)O4)n2)cc(OC)c1OC [Tamatinib] (first compound 0.8 µM, partner dose 0.4 µM) came in with a cell count of 72.1%.

For `Clc1ccc(Nc2nnc(Cc3ccncc3)c3ccccc23)cc1` [vatalanib] + C[C@@H]1CCN(C(=O)CC#N)C[C@@H]1N(C)c1ncnc2[nH]ccc12 [CP690550] (first compound 2 µM, partner dose 1 µM), the cell count worked out at 102%.

`C#Cc1cccc(Nc2ncnc3cc(OCCOC)c(OCCOC)cc23)c1` [erlotinib] + COCC[n+]1c2c(n(Cc3cnccn3)c1C)C(=O)c1ccccc1C2=O [YM155] (first compound 0.8 µM, partner dose 0.0004 µM) showed a cell count of 66.9%.

`Clc1ccc(Nc2nnc(Cc3ccncc3)c3ccccc23)cc1` [vatalanib] + COCC[n+]1c2c(n(Cc3cnccn3)c1C)C(=O)c1ccccc1C2=O [YM155] (first compound 2 µM, partner dose 0.0004 µM) registered a cell count of 139%.

Compound `OCc1c[nH]c2ccccc12` [Indole-3-carbinol] + COc1ccc(Cl)c(Nc2nc3ccccc3nc2NS(=O)(=O)c2cccc(NC(=O)C(C)(C)N)c2)c1 [XL147] (first compound 0.8 µM, partner dose 0.8 µM) gave a cell count of 116%.

As for `Nc1cccc2c1CN(C1CCC(=O)NC1=O)C2=O` (stereo unspecified) [lenalidomide] + C[C@]1(c2nc3c(C(N)=O)cccc3[nH]2)CCCN1 [Veliparib] (first compound 1 µM, partner dose 1.4 µM), the cell count was 87.8%.
